{"source": "patent US12157730B2", "about": "“Heteroaryl derivative, method for producing same, and pharmaceutical composition comprising same as effective component” (VORONOI INC., priority 2019, dated 2024)", "note": "For at least one compound, name, drawing or mass did not settle the structure."}
{"biological_target": "T1, Ba/F3 cell EGFR Exon20 ins NPH (Homo sapiens, UniProt P00533, INS773NPH)", "T1 construct": "expressed in transfected cells; host or cells: Ba/F3", "experiment": "Ba/F3 cell proliferation suppression, EGFR Exon20 ins NPH", "assay_type": "cell-based", "conditions": "GI50 class; Ba/F3 cell line with NPH inserted at Exon20 of EGFR; 72 hours", "protocol": "The following experiment was carried out to evaluate the suppression activity of the compounds according to the present invention against proliferation of Ba/F3 and lung cancer cells which express EGFR mutations.\nOf the cancer cell lines expressing the EGFR gene, A549 was cultured after adding 10% FBS (HyClone) to DMEM (Invitrogen), and RPMI-1640 (Invitrogen) with 10% FBS was used for the other cancer cells. For the Ba/F3 cells, RPMI-1640 with 10% FBS and 5 ng/ml IL-3 (R&D Systems) was used. The transduced Ba/F3 cells were cultured by adding 1 ug/ml puromycin (Invitrogen) to the same medium.\n24 hours before treatment with the compounds, 3000 to 5000 cells were distributed into each well of a white clear bottom 96 well plate (Corning). The compounds were diluted in dimethylsulfoxide (dilution ratio 3:1; 12 concentrations total) and injected 0.5 ul each for a final concentration of 0.3 nM to 50 um. As for measurement of live cells, 72 hours after treatment with the compounds, a CellTiter-Glo luminescent cell-viability reagent (Promega) was used to store the cells at room temperature for 10 minutes, followed by measurement of luminescence using a reader (SynergyNeo, Biotek). Each test was repeated three times.\nThe result was calculated as a cell growth ratio (%) compared to a control. The program GraphPad Prism version 5.0 was used to draw the graphs and calculate the GI50 values."}
{"smiles": "C=CC(=O)Nc1cc(Nc2cc(N3OCC[C@@H]3c3cc(F)cc(F)c3)ncn2)c(OC)cc1N1CCC(N2CC(N(C)C)C2)CC1", "note": "[compound 713, N-(5-((6-((R)-3-(3,5-difluorophenyl)isoxazolidine-2-yl)pyrimidine-4-yl)amino)-2-(4-(3-(dimethylamino)azetidine-1-yl)piperidine-1-yl)-4-methoxyphenyl) acrylamide]", "Ba/F3 (NPH) Activity": "A (GI50 < 50 nM)"}
{"smiles": "C=CC(=O)Nc1cc(Nc2cc(N3OCC[C@@H]3c3ccc(Cl)c(F)c3)ncn2)c(OC)cc1N1CCC(N2CCN(C)CC2)CC1", "note": "[compound 751, N-(5-((6-((R)-3-(4-chloro-3-fluorophenyl)isoxazolidine-2-yl)pyrimidine-4-yl)amino)-4-methoxy-2-(4-(4-methylpiperazine-1-yl)piperidine-1-yl)phenyl) acrylamide]", "Ba/F3 (NPH) Activity": "A (GI50 < 50 nM)"}
{"smiles": "C=CC(=O)Nc1cc(Nc2cc(N3OCC[C@@H]3c3ccc(Cl)c(F)c3)ncn2)c(OC)cc1N(C)CCN(C)C", "note": "[compound 793, N-(5-((6-((R)-3-(4-chloro-3-fluorophenyl)isoxazolidine-2-yl)pyrimidine-4-yl)amino)-2-((2-(dimethylamino)ethyl)(methyl)amino)-4-methoxyphenyl) acrylamide]", "Ba/F3 (NPH) Activity": "A (GI50 < 50 nM)"}
{"smiles": "C=CC(=O)Nc1cc(Nc2cc(N3OCC[C@@H]3c3cccc(C)c3F)ncn2)c(OC)cc1N1CCC(N2CCN(C)CC2)CC1", "note": "[compound 855, N-(5-((6-((R)-3-(2-fluoro-3-methylphenyl)isoxazolidine-2-yl)pyrimidine-4-yl)amino)-4-methoxy-2-(4-(4-methylpiperazine-1-yl)piperidine-1-yl)phenyl) acrylamide]", "Ba/F3 (NPH) Activity": "A (GI50 < 50 nM)"}
{"smiles": "C=CC(=O)Nc1cc(Nc2cc(N3OCC[C@@H]3c3cc(F)ccc3F)ncn2)c(OC)cc1N1CCC(N2CCC(N(C)C)CC2)CC1", "note": "[compound 305, N-(5-((6-((R)-3-(2,5-difluorophenyl)isoxazolidine-2-yl)pyrimidine-4-yl)amino)-2-(4-(dimethylamino)-(1,4'-bipiperidine)-1'-yl)-4-methoxyphenyl) acrylamide]", "Ba/F3 (NPH) Activity": "A (GI50 < 50 nM)"}
{"smiles": "C=CC(=O)Nc1cc(Nc2cc(N3OCC[C@@H]3c3ccc(Cl)c(F)c3)ncn2)c(OC)cc1N1CCC(N2CC[C@H](N(C)C)C2)CC1", "note": "[compound 799]", "Ba/F3 (NPH) Activity": "A (GI50 < 50 nM)"}
{"smiles": "C=CC(=O)Nc1cc(Nc2cc(N3OCC[C@@H]3c3ccc(C)nc3)ncn2)c(OC)cc1N1CCN(C(C)C)CC1", "note": "[Example 220, N-(2-(4-isopropylpiperazine-1-yl)-4-methoxy-5-((6-((R)-3-(6-methylpyridine-3-yl)isoxazolidine-2-yl)pyrimidine-4-yl)amino)phenyl)acrylamide]", "Ba/F3 (NPH) Activity": "B (50 nM ≤ GI50 < 500 nM)"}
{"smiles": "C=CC(=O)Nc1cc(Nc2cc(N3OCC[C@@H]3c3ccc(Cl)c(F)c3)ncn2)c(OC)cc1N1CC[C@H](N(C)C)C1", "note": "[compound 836, N-(5-((6-((R)-3-(4-chloro-3-fluorophenyl)isoxazolidine-2-yl)pyrimidine-4-yl)amino)-2-((S)-3-(dimethylamino)pyrolidine-1-yl)-4-methoxyphenyl) acrylamide]", "Ba/F3 (NPH) Activity": "A (GI50 < 50 nM)"}
{"smiles": "C=CC(=O)Nc1cc(Nc2cc(N3OCC[C@@H]3c3cccc(C)c3F)ncn2)c(OC)cc1N1CCC(N2C[C@@H](C)O[C@@H](C)C2)CC1", "note": "[compound 912, N-(2-(4-((2S,6R)-2,6-dimethylmorpholino)piperidine-1-yl)-5-((6-((R)-3-(2-fluoro-3-methylphenyl)isoxazolidine-2-yl)pyrimidine-4-yl)amino)-4-methoxyphenyl) acrylamide]", "Ba/F3 (NPH) Activity": "A (GI50 < 50 nM)"}
{"smiles": "C=CC(=O)Nc1cc(Nc2cc(N3OCC[C@@H]3Cc3cccc(F)c3Cl)ncn2)c(OC)cc1N1CCC(N2C[C@@H]3C[C@H]2CO3)CC1", "note": "[compound 1042, N-(2-(4-((1S,4S)-2-oxa-5-azabicyclo [2.2.1]heptane-5-yl)piperidine-1-yl)-5-((6-((S)-3-(2-chloro-3-fluorobenzyl)isoxazolidine-2-yl)pyrimidine-4-yl)amino)-4-methoxyphenyl) acrylamide]", "Ba/F3 (NPH) Activity": "A (GI50 < 50 nM)"}
{"smiles": "C=CC(=O)Nc1cc(Nc2cc(N3OCC[C@@H]3c3ccc(Cl)c(F)c3)ncn2)c(OC)cc1N1CC[C@@H](N(C)C)C1", "note": "[compound 794, N-(5-((6-((R)-3-(4-chloro-3-fluorophenyl)isoxazolidine-2-yl)pyrimidine-4-yl)amino)-2-((R)-3-(dimethylamino)pyrolidine-1-yl)-4-methoxyphenyl) acrylamide]", "Ba/F3 (NPH) Activity": "B (50 nM ≤ GI50 < 500 nM)"}
{"smiles": "C=CC(=O)Nc1cc(Nc2cc(N3OCC[C@@H]3c3ccc(Cl)cc3)ncn2)c(OC)cc1N1CCC(N2CCN(C3COC3)CC2)CC1", "note": "[Example 82, N-(5-((6-((R)-3-(4-chlorophenyl)isoxazolidine-2-yl)pyrimidine-4-yl)amino)-4-methoxy-2-(4-(4-(oxetane-3-yl)piperazine-1-yl)piperidine-1-yl)phenyl)acrylamide]", "Ba/F3 (NPH) Activity": "A (GI50 < 50 nM)"}
{"smiles": "C=CC(=O)Nc1cc(Nc2cc(N3OCC[C@@H]3c3ccc(Cl)c(Cl)c3F)ncn2)c(OC)cc1N1CCC(N2CCC(N(C)C)CC2)CC1", "note": "[compound 865, N-(5-((6-((R)-3-(3,4-dichloro-2-fluorophenyl)isoxazolidine-2-yl)pyrimidine-4-yl)amino)-2-(4-(dimethylamino)-[1,4'-bipiperidine]-1'-yl)-4-methoxyphenyl) acrylamide]", "Ba/F3 (NPH) Activity": "B (50 nM ≤ GI50 < 500 nM)"}
{"smiles": "C=CC(=O)Nc1cc(Nc2cc(N3OCC[C@@H]3c3cccc4ccccc34)ncn2)c(OC)cc1N1CCC(N2CCOCC2)CC1", "note": "[compound 483, N-(4-methoxy-2-(4-morpholinopiperidine-1-yl)-5-((6-((R)-3-(naphthalene-1-yl)isoxazolidine-2-yl)pyrimidine-4-yl)amino)phenyl)acrylamide]", "Ba/F3 (NPH) Activity": "A (GI50 < 50 nM)"}
{"smiles": "C=CC(=O)Nc1cc(Nc2cc(N3OCC[C@@H]3c3ccc(F)cc3F)ncn2)c(OC)cc1N1CCN(C2CCOCC2)CC1", "note": "[compound 379, N-(5-((6-((R)-3-(2,4-difluorophenyl)isoxazolidine-2-yl)pyrimidine-4-yl)amino)-4-methoxy-2-(4-(tetrahydro-2H-pyran-4-yl)piperazine-1-yl)phenyl)acrylamide]", "Ba/F3 (NPH) Activity": "A (GI50 < 50 nM)"}
{"smiles": "C=CC(=O)Nc1cc(Nc2cc(N3OCCC3c3cccc(F)c3)ncn2)c(OC)cc1N1CCC(N2CC[C@@H](N(C)C)C2)CC1", "note": "(stereo partly drawn) [compound 748, N-(2-(4-((R)-3-(dimethylamino)pyrolidine-1-yl)piperidine-1-yl)-5-((6-(3-(3-fluorophenyl)isoxazolidine-2-yl)pyrimidine-4-yl)amino)-4-methoxyphenyl) acrylamide]", "Ba/F3 (NPH) Activity": "A (GI50 < 50 nM)"}
{"smiles": "C=CC(=O)Nc1cc(Nc2cc(N3OCC[C@H]3c3c(F)cccc3F)ncn2)c(OC)cc1N1CCC(N2CCN(C(C)C)CC2)CC1", "note": "[compound 311, N-(5-((6-((S)-3-(2,6-difluorophenyl)isoxazolidine-2-yl)pyrimidine-4-yl)amino)-2-(4-(4-isopropylpiperazine-1-yl)piperidine-1-yl)-methoxyphenyl) acrylamide]", "Ba/F3 (NPH) Activity": "C (500 nM ≤ GI50 < 5000 nM)"}
{"smiles": "C=CC(=O)Nc1cc(Nc2cc(N3OCC[C@@H]3c3ccc(F)c(Cl)c3)ncn2)c(OC)cc1N1CCC(N2CCN(C3CCC3)CC2)CC1", "note": "[Example 73, N-(5-((6-((R)-3-(3-chloro-4-fluorophenyl)isoxazolidine-2-yl)pyrimidine-4-yl)amino)-2-(4-(4-cyclobutylpiperazine-1-yl)piperidine-1-yl)-4-methoxyphenyl) acrylamide]", "Ba/F3 (NPH) Activity": "A (GI50 < 50 nM)"}
{"smiles": "C=CC(=O)Nc1cc(Nc2cc(N3OCC[C@@H]3c3ccc(F)c(Cl)c3)ncn2)c(OC)cc1N1CCC(N2C[C@@H](C)O[C@@H](C)C2)CC1", "note": "[compound 712, N-(5-((6-((R)-3-(3-chloro-4-fluorophenyl)isoxazolidine-2-yl)pyrimidine-4-yl)amino)-2-(4-((2S,6R)-2,6-dimethylmorpholino)piperidine-1-yl)-4-methoxyphenyl) acrylamide]", "Ba/F3 (NPH) Activity": "A (GI50 < 50 nM)"}
{"smiles": "C=CC(=O)Nc1cc(Nc2cc(N3OCC[C@@H]3c3ccc(Cl)c(F)c3)ncn2)c(OC)cc1N1CCC(N(C)C)CC1", "note": "[compound 797, N-(5-((6-((R)-3-(4-chloro-3-fluorophenyl)isoxazolidine-2-yl)pyrimidine-4-yl)amino)-2-(4-(dimethylamino)piperidine-1-yl)-4-methoxyphenyl) acrylamide]", "Ba/F3 (NPH) Activity": "A (GI50 < 50 nM)"}
{"smiles": "C=CC(=O)Nc1cc(Nc2cc(N3OCC[C@@H]3c3ccc(Cl)cc3F)ncn2)c(OC)cc1N1CCC(N2CCN(C3CC3)CC2)CC1", "note": "[Example 130, N-(5-((6-((R)-3-(4-chloro-2-fluorophenyl)isoxazolidine-2-yl)pyrimidine-4-yl)amino)-2-(4-(4-cyclopropylpiperazine-1-yl)piperidine-1-yl)-4-methoxyphenyl) acrylamide]", "Ba/F3 (NPH) Activity": "A (GI50 < 50 nM)"}
{"smiles": "C=CC(=O)Nc1cc(Nc2cc(N3OCC[C@@H]3c3ccc(C)nc3)ncn2)c(OC)cc1N1CCN(C2CCCC2)CC1", "note": "[Example 226, N-(2-(4-cyclopentylpiperazine-1-yl)-4-methoxy-5-((6-((R)-3-(6-methylpyridine-3-yl)isoxazolidine-2-yl)pyrimidine-4-yl)amino)phenyl)acrylamide]", "Ba/F3 (NPH) Activity": "C (500 nM ≤ GI50 < 5000 nM)"}
